The supplement of paper PMC8728848
The other results are listed elsewhere or left out.

What was measured:
Assay in all cases: glycan array binding signal (z-score within array); higher = stronger binding
Conditions in all cases: glycan notation: IUPAC condensed, linker removed
[1] = target: Fuc(a1-2)Gal
In short: (§1)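 The binding signal is a Z-score computed within each array and averaged over linkers. Arrays of the same protein sequence at different concentrations or buffers were also averaged together. Data originate from 3228 arrays in the Consortium for Functional Glycomics database, kept only where the protein sequence was available.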

[2] = target: Fuc(a1-2)Gal(b1-3)GalNAc
In short: as §1

[3] = target: Fuc(a1-2)Gal(b1-3)GalNAc(a1-3)[Fuc(a1-2)]Gal(b1-4)Glc
In short: as §1

[4] = target: Fuc(a1-2)Gal(b1-3)GalNAc(a1-3)[Fuc(a1-2)]Gal(b1-4)GlcNAc
In short: as §1

[5] = target: Fuc(a1-2)Gal(b1-3)GalNAc(b1-3)Gal
In short: as §1

[6] = target: Fuc(a1-2)Gal(b1-3)GalNAc(b1-3)Gal(a1-4)Gal(b1-4)Glc
In short: as §1

[7] = target: Fuc(a1-2)Gal(b1-3)GalNAc(b1-4)[Neu5Ac(a2-3)]Gal(b1-4)Glc
In short: as §1

[8] = target: Fuc(a1-2)Gal(b1-3)GlcNAc
In short: as §1

[9] = target: Fuc(a1-2)Gal(b1-3)GlcNAc(b1-2)Man(a1-3)[Fuc(a1-2)Gal(b1-3)GlcNAc(b1-2)Man(a1-6)]Man(b1-4)GlcNAc(b1-4)GlcNAc
In short: as §1

[10] = target: Fuc(a1-2)Gal(b1-3)GlcNAc(b1-3)Gal(b1-4)Glc
In short: as §1

[11] = target: Fuc(a1-2)Gal(b1-3)GlcNAc(b1-3)[Fuc(a1-3)[Gal(b1-4)]GlcNAc(b1-6)]Gal(b1-4)Glc
In short: as §1

[12] = target: Fuc(a1-2)Gal(b1-3)[Fuc(a1-4)]GlcNAc
In short: as §1

[13] = target: Fuc(a1-2)Gal(b1-3)[Fuc(a1-4)]GlcNAc(b1-2)Man(a1-3)[Fuc(a1-2)Gal(b1-3)[Fuc(a1-4)]GlcNAc(b1-2)Man(a1-6)]Man(b1-4)GlcNAc(b1-4)GlcNAc
In short: as §1

[14] = target: Fuc(a1-2)Gal(b1-3)[Fuc(a1-4)]GlcNAc(b1-3)[Fuc(a1-3)[Gal(b1-4)]GlcNAc(b1-6)]Gal(b1-4)Glc
In short: as §1

[15] = target: Fuc(a1-2)Gal(b1-3)[Fuc(a1-4)]GlcNAc(b1-3)[Gal(b1-4)GlcNAc(b1-6)]Gal(b1-4)Glc
In short: as §1

[16] = target: Fuc(a1-2)Gal(b1-4)Glc
In short: as §1

[17] = target: Fuc(a1-2)Gal(b1-4)Glc6S
In short: as §1

[18] = target: Fuc(a1-2)Gal(b1-4)GlcNAc
In short: as §1

[19] = target: Fuc(a1-2)Gal(b1-4)GlcNAc(b1-2)Man(a1-3)[Fuc(a1-2)Gal(b1-4)GlcNAc(b1-2)Man(a1-6)]Man(b1-4)GlcNAc(b1-4)GlcNAc
In short: as §1

[20] = target: Fuc(a1-2)Gal(b1-4)GlcNAc(b1-3)Gal(b1-4)GlcNAc
In short: as §1

[21] = target: Fuc(a1-2)Gal(b1-4)GlcNAc(b1-3)Gal(b1-4)GlcNAc(b1-3)Gal(b1-4)GlcNAc
In short: as §1

[22] = target: Fuc(a1-2)Gal(b1-4)GlcNAc(b1-3)GalNAc
In short: as §1

[23] = target: Fuc(a1-2)Gal(b1-4)GlcNAc6S
In short: as §1

[24] = target: Fuc(a1-2)Gal(b1-4)[Fuc(a1-3)]GlcNAc
In short: as §1

[25] = target: Fuc(a1-2)Gal(b1-4)[Fuc(a1-3)]GlcNAc(b1-2)Man(a1-3)[Fuc(a1-2)Gal(b1-4)[Fuc(a1-3)]GlcNAc(b1-2)Man(a1-6)]Man(b1-4)GlcNAc(b1-4)GlcNAc
In short: as §1

[26] = target: Fuc(a1-2)Gal(b1-4)[Fuc(a1-3)]GlcNAc(b1-3)Gal(b1-4)[Fuc(a1-3)]GlcNAc
In short: as §1

[27] = target: Fuc(a1-2)Gal(b1-4)[Fuc(a1-3)]GlcNAc(b1-3)Gal(b1-4)[Fuc(a1-3)]GlcNAc(b1-3)Gal(b1-4)[Fuc(a1-3)]GlcNAc
In short: as §1

[28] = target: Fuc(a1-2)Gal6S(b1-4)Glc
In short: as §1

[29] = target: Fuc(a1-2)Gal6S(b1-4)Glc6S
In short: as §1

[30] = target: Fuc(a1-2)Gal6S(b1-4)GlcNAc
In short: as §1

[31] = target: Fuc(a1-2)[Gal(a1-3)]Gal
In short: as §1

[32] = target: Fuc(a1-2)[Gal(a1-3)]Gal(b1-3)GlcNAc
In short: as §1

[33] = target: Fuc(a1-2)[Gal(a1-3)]Gal(b1-3)GlcNAc(b1-2)Man(a1-3)[Fuc(a1-2)[Gal(a1-3)]Gal(b1-3)GlcNAc(b1-2)Man(a1-6)]Man(b1-4)GlcNAc(b1-4)GlcNAc
In short: as §1

[34] = target: Fuc(a1-2)[Gal(a1-3)]Gal(b1-4)Glc
In short: as §1

[35] = target: Fuc(a1-2)[Gal(a1-3)]Gal(b1-4)GlcNAc
In short: as §1

[36] = target: Fuc(a1-2)[Gal(a1-3)]Gal(b1-4)GlcNAc(b1-2)Man(a1-3)[Fuc(a1-2)[Gal(a1-3)]Gal(b1-4)GlcNAc(b1-2)Man(a1-6)]Man(b1-4)GlcNAc(b1-4)GlcNAc
In short: as §1

[37] = target: Fuc(a1-2)[Gal(a1-3)]Gal(b1-4)[Fuc(a1-3)]GlcNAc
In short: as §1

[38] = target: Fuc(a1-2)[Gal(a1-4)]Gal(b1-4)GlcNAc
In short: as §1

[39] = target: Fuc(a1-2)[GalNAc(a1-3)]Gal
In short: as §1

[40] = target: Fuc(a1-2)[GalNAc(a1-3)]Gal(b1-3)GalNAc(a1-3)[Fuc(a1-2)]Gal(b1-4)GlcNAc
In short: as §1

[41] = target: Fuc(a1-2)[GalNAc(a1-3)]Gal(b1-3)GlcNAc
In short: as §1

[42] = target: Fuc(a1-2)[GalNAc(a1-3)]Gal(b1-3)GlcNAc(b1-2)Man(a1-3)[Fuc(a1-2)[GalNAc(a1-3)]Gal(b1-3)GlcNAc(b1-2)Man(a1-6)]Man(b1-4)GlcNAc(b1-4)GlcNAc
In short: as §1

[43] = target: Fuc(a1-2)[GalNAc(a1-3)]Gal(b1-4)Glc
In short: as §1

[44] = target: Fuc(a1-2)[GalNAc(a1-3)]Gal(b1-4)GlcNAc
In short: as §1

[45] = target: Fuc(a1-2)[GalNAc(a1-3)]Gal(b1-4)GlcNAc(b1-2)Man(a1-3)[Fuc(a1-2)[GalNAc(a1-3)]Gal(b1-4)GlcNAc(b1-2)Man(a1-6)]Man(b1-4)GlcNAc(b1-4)GlcNAc
In short: as §1

B1: exo-alpha-sialidase (Propionibacterium acnes), Q6A7G1 (protein)
chain: GSHMSGRAPAPVAATTQPKLVTGDITSTDQSGTNLFFGKKIVRNARGAIMKVDRTWPAAVPAPLPDVRADSSTRMLLGPVVDLAVNEHPEGVFYRIPALATASNGDLLASYDLRPGSAGDAPNPNSIVQRRSRDNGRTWGPQTVIHAGTPGRRKVGYSDPSYLVDPATGRILNFHVKSYDRGFATSEVGTDPDDRHVLHAEVSTSTDNGHTWTHRDITREITSDPTTRTRFVASGQGIALLHGPHAGRLIAQMTVRNSVGQQAQSIYSDDHGITWHAGNPVGRMMDENKVVELSDGTLMLNSRDAARSGRRKVAYSQDGGLTWGPVKLVDDLIDPTNNAQIIRAYPNARAGSAKARILLFTNARNATERVNGTLSVSCDDGRTWVSHQTYMPGEVGYTTAAVQSDGALGVLWERDGIRYSTIPMGWLNSVCPLAPSGRPTSGKPTSGTSLPPTAT
Which “glycan array binding signal (z-score)” value [1] does the source give for B1 here?
Its value is -0.357.

And the “glycan array binding signal (z-score)” value [2]?
Its value is -0.3.

And the “glycan array binding signal (z-score)” value [3]?
The value was -0.335.

And the “glycan array binding signal (z-score)” value [4]?
The value was -0.316.

What about the “glycan array binding signal (z-score)” value [5] of the same binder?
Its value is -0.355.

What about the “glycan array binding signal (z-score)” value [6] of the same binder?
The value was -0.278.

What about the “glycan array binding signal (z-score)” value [7] of the same binder?
The value was -0.338.

What about the “glycan array binding signal (z-score)” value [8] of the same binder?
The value was -0.349.

What about the “glycan array binding signal (z-score)” value [9] of the same binder?
The value was -0.374.

What about the “glycan array binding signal (z-score)” value [10] of the same binder?
Its value is -0.359.

What about the “glycan array binding signal (z-score)” value [11] of the same binder?
Its value is -0.336.

What about the “glycan array binding signal (z-score)” value [12] of the same binder?
The value was -0.355.

What about the “glycan array binding signal (z-score)” value [13] of the same binder?
Its value is -0.03.

And the “glycan array binding signal (z-score)” value [14]?
The value was -0.361.

And the “glycan array binding signal (z-score)” value [15]?
Its value is -0.368.

What about the “glycan array binding signal (z-score)” value [16] of the same binder?
Its value is -0.361.

What about the “glycan array binding signal (z-score)” value [17] of the same binder?
Its value is -0.256.

And the “glycan array binding signal (z-score)” value [18]?
The value was -0.347.

What about the “glycan array binding signal (z-score)” value [19] of the same binder?
The value was -0.361.

And the “glycan array binding signal (z-score)” value [20]?
Its value is -0.312.

And the “glycan array binding signal (z-score)” value [21]?
The value was -0.337.

And the “glycan array binding signal (z-score)” value [22]?
Its value is -0.353.

And the “glycan array binding signal (z-score)” value [23]?
Its value is -0.306.

And the “glycan array binding signal (z-score)” value [24]?
Its value is -0.316.

And the “glycan array binding signal (z-score)” value [25]?
The value was -0.166.

And the “glycan array binding signal (z-score)” value [26]?
The value was -0.365.

What about the “glycan array binding signal (z-score)” value [27] of the same binder?
The value was -0.348.

What about the “glycan array binding signal (z-score)” value [28] of the same binder?
The value was -0.3.

What about the “glycan array binding signal (z-score)” value [29] of the same binder?
The value was -0.353.

And the “glycan array binding signal (z-score)” value [30]?
Its value is -0.332.

What about the “glycan array binding signal (z-score)” value [31] of the same binder?
The value was -0.346.

What about the “glycan array binding signal (z-score)” value [32] of the same binder?
The value was -0.322.

And the “glycan array binding signal (z-score)” value [33]?
Its value is -0.375.

What about the “glycan array binding signal (z-score)” value [34] of the same binder?
The value was -0.374.

And the “glycan array binding signal (z-score)” value [35]?
The value was -0.345.

What about the “glycan array binding signal (z-score)” value [36] of the same binder?
Its value is -0.343.

What about the “glycan array binding signal (z-score)” value [37] of the same binder?
The value was -0.208.

What about the “glycan array binding signal (z-score)” value [38] of the same binder?
The value was -0.352.

And the “glycan array binding signal (z-score)” value [39]?
Its value is -0.332.

And the “glycan array binding signal (z-score)” value [40]?
Its value is -0.319.

And the “glycan array binding signal (z-score)” value [41]?
Its value is -0.343.

What about the “glycan array binding signal (z-score)” value [42] of the same binder?
The value was -0.369.

What about the “glycan array binding signal (z-score)” value [43] of the same binder?
Its value is -0.31.

And the “glycan array binding signal (z-score)” value [44]?
Its value is -0.342.

And the “glycan array binding signal (z-score)” value [45]?
Its value is -0.343.
